Results are given in words; binding and its absence hold for the method and conditions named. In cells and extracts the contact can be indirect. Some entries that bind do so weakly or less than the wild type. For some of these results: Tags and fused reporters may be left off the sequences shown. Each block holds one binder with its values, some of them ahead of it.
Assays:
Flag-MRGPRF = Flag-MRGPRF (UniProt Q96AM1); assay: co-IP; lysates of A375 and SK-MEL-2 cells; Dynabeads with anti-Flag-tag or anti-HA-tag antibody, overnight at 4 °C; Western blot
FLAG-MRGPRF (1-181aa) = FLAG-MRGPRF (1-181aa) (UniProt Q96AM1); assay: as above
FLAG-MRGPRF (182-343aa) = FLAG-MRGPRF (182-343aa) (UniProt Q96AM1); assay: as above
MRGPRF-LgBiT = MRGPRF-LgBiT (UniProt Q96AM1); assay: split reporter; SmBiT-LgBiT PPI luciferase assay; melanoma cells transfected with USP45-SmBiT and/or MRGPRF-LgBiT, luciferase activity measured after lysis

The chains behind the UniProt entries cited, without tags or fusion partners. Where a name states a change or a piece, a line headed by the entry shows the natural chain unless it says otherwise. Residues count along the entry.
UniProt Q96AM1: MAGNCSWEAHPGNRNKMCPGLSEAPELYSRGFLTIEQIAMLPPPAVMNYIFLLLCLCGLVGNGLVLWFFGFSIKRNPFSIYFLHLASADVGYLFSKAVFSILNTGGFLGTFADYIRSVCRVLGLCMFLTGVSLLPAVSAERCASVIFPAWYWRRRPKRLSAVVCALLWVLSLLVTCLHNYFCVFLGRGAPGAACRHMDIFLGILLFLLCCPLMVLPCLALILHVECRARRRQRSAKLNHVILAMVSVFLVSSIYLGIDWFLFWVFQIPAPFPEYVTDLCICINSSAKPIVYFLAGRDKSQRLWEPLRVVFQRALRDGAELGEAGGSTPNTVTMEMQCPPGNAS
FLAG-MRGPRF (1-181aa): residues 1-181 of Q96AM1
FLAG-MRGPRF (182-343aa): residues 182-343 of Q96AM1

B1: HA-USP45 (1-170 aa) (domain or fragment, UniProt Q70EL2 1-170)
chain: MRVKDPTKALPEKAKRSKRPTVPHDEDSSDDIAVGLTCQHVSHAISVNHVKRAIAENLWSVCSECLKERRFYDGQLVLTSDIWLCLKCGFQGCGKNSESQHSLKHFKSSRTEPHCIIINLSTWIIWCYECDEKLSTHCNKKVLAQIVDFLQKHASKTQTSAFSRIMKLCE
binding (Flag-MRGPRF): no binding

B3: HA-USP45 (61-814aa) (domain or fragment, UniProt Q70EL2 61-814)
chain: VCSECLKERRFYDGQLVLTSDIWLCLKCGFQGCGKNSESQHSLKHFKSSRTEPHCIIINLSTWIIWCYECDEKLSTHCNKKVLAQIVDFLQKHASKTQTSAFSRIMKLCEEKCETDEIQKGGKCRNLSVRGITNLGNTCFFNAVMQNLAQTYTLTDLMNEIKESSTKLKIFPSSDSQLDPLVVELSRPGPLTSALFLFLHSMKETEKGPLSPKVLFNQLCQKAPRFKDFQQQDSQELLHYLLDAVRTEETKRIQASILKAFNNPTTKTADDETRKKVKAYGKEGVKMNFIDRIFIGELTSTVMCEECANISTVKDPFIDISLPIIEERVSKPLLWGRMNKYRSLRETDHDRYSGNVTIENIHQPRAAKKHSSSKDKSQLIHDRKCIRKLSSGETVTYQKNENLEMNGDSLMFASLMNSESRLNESPTDDSEKEASHSESNVDADSEPSESESASKQTGLFRSSSGSGVQPDGPLYPLSAGKLLYTKETDSGDKEMAEAISELRLSSTVTGDQDFDRENQPLNISNNLCFLEGKHLRSYSPQNAFQTLSQSYITTSKECSIQSCLYQFTSMELLMGNNKLLCENCTKNKQKYQEETSFAEKKVEGVYTNARKQLLISAVPAVLILHLKRFHQAGLSLRKVNRHVDFPLMLDLAPFCSATCKNASVGDKVLYGLYGIVEHSGSMREGHYTAYVKVRTPSRKLSEHNTKKKNVPGLKAADNESAGQWVHVSDTYLQVVPESRALSAQAYLLFYERVL
binding (Flag-MRGPRF): binds

B5: USP45-SmBiT (enzyme, UniProt Q70EL2 1-814)
chain: MRVKDPTKALPEKAKRSKRPTVPHDEDSSDDIAVGLTCQHVSHAISVNHVKRAIAENLWSVCSECLKERRFYDGQLVLTSDIWLCLKCGFQGCGKNSESQHSLKHFKSSRTEPHCIIINLSTWIIWCYECDEKLSTHCNKKVLAQIVDFLQKHASKTQTSAFSRIMKLCEEKCETDEIQKGGKCRNLSVRGITNLGNTCFFNAVMQNLAQTYTLTDLMNEIKESSTKLKIFPSSDSQLDPLVVELSRPGPLTSALFLFLHSMKETEKGPLSPKVLFNQLCQKAPRFKDFQQQDSQELLHYLLDAVRTEETKRIQASILKAFNNPTTKTADDETRKKVKAYGKEGVKMNFIDRIFIGELTSTVMCEECANISTVKDPFIDISLPIIEERVSKPLLWGRMNKYRSLRETDHDRYSGNVTIENIHQPRAAKKHSSSKDKSQLIHDRKCIRKLSSGETVTYQKNENLEMNGDSLMFASLMNSESRLNESPTDDSEKEASHSESNVDADSEPSESESASKQTGLFRSSSGSGVQPDGPLYPLSAGKLLYTKETDSGDKEMAEAISELRLSSTVTGDQDFDRENQPLNISNNLCFLEGKHLRSYSPQNAFQTLSQSYITTSKECSIQSCLYQFTSMELLMGNNKLLCENCTKNKQKYQEETSFAEKKVEGVYTNARKQLLISAVPAVLILHLKRFHQAGLSLRKVNRHVDFPLMLDLAPFCSATCKNASVGDKVLYGLYGIVEHSGSMREGHYTAYVKVRTPSRKLSEHNTKKKNVPGLKAADNESAGQWVHVSDTYLQVVPESRALSAQAYLLFYERVL
binding (MRGPRF-LgBiT): binds

Further lines, results first:

binding (Flag-MRGPRF): binds
B2: HA-USP45 (190-814aa) (domain or fragment, UniProt Q70EL2 190-814)
chain: RGITNLGNTCFFNAVMQNLAQTYTLTDLMNEIKESSTKLKIFPSSDSQLDPLVVELSRPGPLTSALFLFLHSMKETEKGPLSPKVLFNQLCQKAPRFKDFQQQDSQELLHYLLDAVRTEETKRIQASILKAFNNPTTKTADDETRKKVKAYGKEGVKMNFIDRIFIGELTSTVMCEECANISTVKDPFIDISLPIIEERVSKPLLWGRMNKYRSLRETDHDRYSGNVTIENIHQPRAAKKHSSSKDKSQLIHDRKCIRKLSSGETVTYQKNENLEMNGDSLMFASLMNSESRLNESPTDDSEKEASHSESNVDADSEPSESESASKQTGLFRSSSGSGVQPDGPLYPLSAGKLLYTKETDSGDKEMAEAISELRLSSTVTGDQDFDRENQPLNISNNLCFLEGKHLRSYSPQNAFQTLSQSYITTSKECSIQSCLYQFTSMELLMGNNKLLCENCTKNKQKYQEETSFAEKKVEGVYTNARKQLLISAVPAVLILHLKRFHQAGLSLRKVNRHVDFPLMLDLAPFCSATCKNASVGDKVLYGLYGIVEHSGSMREGHYTAYVKVRTPSRKLSEHNTKKKNVPGLKAADNESAGQWVHVSDTYLQVVPESRALSAQAYLLFYERVL

binding (FLAG-MRGPRF (1-181aa)): binds
binding (FLAG-MRGPRF (182-343aa)): no binding
binding (Flag-MRGPRF): binds
B4: HA-USP45 (wildtype USP45) (enzyme, UniProt Q70EL2 1-814)
chain: B5 chain

Source: PMC12561219
